# Reference: PubChem BioAssay AID504332 (National Center for Advancing Translational Sciences (NCATS), 2011)
# The campaign covered roughly 350,000 compounds. About 31,000 (8.9%) were called active. Inconclusive means that the source gave no clear call. Such entries were picked first, then a sample of the others. Calls follow the shape of the dose curve; as a rule, active = well fitted inhibition curve with a large enough effect; inconclusive = small, poorly fitted or top-dose-only effect; inactive = no such curve, though single readings can be large or run the other way. Potencies beside an inconclusive call are fits to weak or partial responses and may not hold up.
# Molecular target: Histone-lysine N-methyltransferase EHMT2 (Homo sapiens) (UniProt Q96KQ7)
# Assay: qHTS Assay for Inhibitors of Histone Lysine Methyltransferase G9a; also: nearly all actives have a fitted effect of over 75% in size
# Settings: G9a H3K9 monomethylation, AlphaScreen, 2 h; activity, negative = inhibition: at 59 µM (top of the series) unless noted
# How it was run: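 Quantitative HTS format: methyltransferase activity on a biotin-tagged H3K9 peptide is measured by AlphaScreen, using a rabbit anti-monomethyl-H3K9 antibody with streptavidin donor and anti-IgG acceptor beads. Final levels are 20 nM enzyme, 500 nM peptide, 20 uM SAM; 2 h RT.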
# % is scaled to controls: 0 for no effect and ±100 for the full control effect; potency is read from the fitted curve at half-maximal effect; tags tell the direction and shape of the fitted curve.
# Sequence of UniProt Q96KQ7 (Q96KQ7 whole entry, looked up): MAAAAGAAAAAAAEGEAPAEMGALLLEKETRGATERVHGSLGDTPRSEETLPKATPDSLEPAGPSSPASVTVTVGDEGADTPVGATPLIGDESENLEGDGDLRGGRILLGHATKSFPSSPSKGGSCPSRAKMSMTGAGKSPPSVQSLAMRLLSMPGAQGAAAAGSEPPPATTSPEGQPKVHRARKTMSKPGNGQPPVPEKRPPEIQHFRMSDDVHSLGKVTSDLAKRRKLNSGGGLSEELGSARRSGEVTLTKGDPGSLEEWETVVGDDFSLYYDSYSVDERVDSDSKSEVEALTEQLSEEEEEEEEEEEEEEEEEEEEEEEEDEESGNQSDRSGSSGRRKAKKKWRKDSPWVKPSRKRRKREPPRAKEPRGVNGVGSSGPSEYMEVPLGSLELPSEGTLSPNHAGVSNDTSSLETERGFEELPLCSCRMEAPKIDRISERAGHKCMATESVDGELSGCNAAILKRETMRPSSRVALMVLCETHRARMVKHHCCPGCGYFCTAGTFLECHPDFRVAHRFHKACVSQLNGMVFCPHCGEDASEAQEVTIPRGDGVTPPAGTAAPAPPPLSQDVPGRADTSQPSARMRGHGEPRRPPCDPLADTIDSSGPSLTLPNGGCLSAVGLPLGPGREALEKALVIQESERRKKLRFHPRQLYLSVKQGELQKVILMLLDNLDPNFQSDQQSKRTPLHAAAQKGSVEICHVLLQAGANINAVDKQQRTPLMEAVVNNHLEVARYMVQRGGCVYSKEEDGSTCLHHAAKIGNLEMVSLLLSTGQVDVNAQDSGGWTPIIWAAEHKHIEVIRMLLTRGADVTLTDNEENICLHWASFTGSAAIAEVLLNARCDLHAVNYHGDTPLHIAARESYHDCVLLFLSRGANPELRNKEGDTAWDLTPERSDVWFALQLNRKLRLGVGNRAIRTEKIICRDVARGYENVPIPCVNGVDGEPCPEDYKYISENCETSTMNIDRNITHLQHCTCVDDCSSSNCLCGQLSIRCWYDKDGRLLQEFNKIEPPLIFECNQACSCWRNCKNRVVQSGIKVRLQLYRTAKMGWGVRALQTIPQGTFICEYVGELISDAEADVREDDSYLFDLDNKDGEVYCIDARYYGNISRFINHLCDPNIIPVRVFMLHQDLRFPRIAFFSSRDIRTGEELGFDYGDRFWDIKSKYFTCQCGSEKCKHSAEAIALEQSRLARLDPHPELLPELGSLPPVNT
SMILES,Potency,"activity, negative = inhibition"
Fc1ccc(Nc2ccnc(Nc3ccc(F)cc3)n2)cc1,"inconclusive: 3.55 µM [inhibitor, single point]",
O=C(CN1CCN(C(C(=O)Nc2ccc(Cl)cc2C(F)(F)F)c2ccccc2)CC1)NC1CC1 (configuration not stated),"inconclusive: 12.6 µM [inhibitor, single point]",
COCCn1nnnc1C(C(C)C)N1CCOCC1 (configuration not stated),active: 79.4 µM,
Cc1onc(-c2ccccc2Cl)c1C(=O)NCc1ccc2c(c1)cc(C)n2C,,inconclusive: -66% [inhibitor]
S=C(NCC1CCCO1)Nc1ccc(Cl)cc1Cl (configuration not stated),"inconclusive: 89.1 µM [inhibitor, single point]",
Cc1cccc(NCCNc2cccc(C)c2)c1,,inconclusive: -82.7% [inhibitor]
O=C(Nc1nnc(-c2ccncc2)o1)c1cccc(N2C(=O)CCC2=O)c1,"inconclusive: 50.1 µM [inhibitor, partial curve]",
Cc1cc(OCC(=O)Nc2ccc(S(=O)(=O)N3CCN(C)CC3)cc2)cc(C)c1Cl,"inconclusive: 2.51 µM [inhibitor, partial curve, poor fit]",
CC(C)(C)c1ccc(C2Sc3ccccc3NC3=C2C(=O)c2ccccc23)cc1 (configuration not stated),active: 10 µM,
C=CCSc1nc2sc3c(c2c(=O)n1-c1ccc(C)cc1)CCN(C)C3,"inconclusive: 100 µM [inhibitor, single point]",
CCN1CCN(C(=O)c2ccccc2N(Cc2ccccc2)S(C)(=O)=O)CC1,"inconclusive: 31.6 µM [inhibitor, single point]",
COc1cc(/C=N/NC(=O)c2ccccn2)ccc1OC(=O)c1ccccc1Br,,inactive: 22.1% [at 102 µM]
Cc1cccc2sc(N(CCCN(C)C)C(=O)c3cc4ccccc4oc3=O)nc12,"inconclusive: 39.8 µM [inhibitor, single point]",
O=C(Nc1nc2ccccc2s1)C1CCCO1 (configuration not stated),,inactive: -45.4%
COC(=O)N1CCC[C@@]2(CCN(Cc3nccs3)C2)C1,,inactive: 2.01% [at 12.7 µM]
CN1CCN(C(=S)Nc2ccc(Cl)c(Cl)c2)CC1,"inconclusive: 89.1 µM [inhibitor, single point]",
O=C1CN(C(=O)Cc2ccc(F)cc2)C(c2ccccc2)c2cc(Br)ccc2N1 (configuration not stated),,inactive: -45.7%
CC1(C)C=C2C(=NN(c3ccccc3)C(N)=C2C#N)CO1,active: 6.31 µM,
Cc1cc(S(=O)(=O)Nc2cccc(Cl)c2)c(C)s1,,inactive: 1.7% [at 102 µM]
O=C(NCc1ccccn1)Nc1cccc(Cl)c1,,inactive: 27.5%
O=C(NCCCO)/C(=C\c1ccco1)NC(=O)c1ccc(Br)o1,active: 28.2 µM,
CCOc1ccc(NC(=O)CC2C(=O)N(c3ccccc3)C(=O)N2CCc2ccc(OC)cc2)cc1 (configuration not stated),,inactive: 8.4%
